{"source": "PubChem BioAssay AID488969", "about": "(Vanderbilt High Throughput Screening Facility, 2010)", "note": "The full ranking holds about 110,000 compounds; the median of “z-score” is about -0.1, and the highest 2% start at about 2. The list shows a part of the results."}
{"molecular_target": "Metabotropic glutamate receptor 8 (Rattus norvegicus) (UniProt P70579)", "sequence (P70579 whole entry, looked up)": "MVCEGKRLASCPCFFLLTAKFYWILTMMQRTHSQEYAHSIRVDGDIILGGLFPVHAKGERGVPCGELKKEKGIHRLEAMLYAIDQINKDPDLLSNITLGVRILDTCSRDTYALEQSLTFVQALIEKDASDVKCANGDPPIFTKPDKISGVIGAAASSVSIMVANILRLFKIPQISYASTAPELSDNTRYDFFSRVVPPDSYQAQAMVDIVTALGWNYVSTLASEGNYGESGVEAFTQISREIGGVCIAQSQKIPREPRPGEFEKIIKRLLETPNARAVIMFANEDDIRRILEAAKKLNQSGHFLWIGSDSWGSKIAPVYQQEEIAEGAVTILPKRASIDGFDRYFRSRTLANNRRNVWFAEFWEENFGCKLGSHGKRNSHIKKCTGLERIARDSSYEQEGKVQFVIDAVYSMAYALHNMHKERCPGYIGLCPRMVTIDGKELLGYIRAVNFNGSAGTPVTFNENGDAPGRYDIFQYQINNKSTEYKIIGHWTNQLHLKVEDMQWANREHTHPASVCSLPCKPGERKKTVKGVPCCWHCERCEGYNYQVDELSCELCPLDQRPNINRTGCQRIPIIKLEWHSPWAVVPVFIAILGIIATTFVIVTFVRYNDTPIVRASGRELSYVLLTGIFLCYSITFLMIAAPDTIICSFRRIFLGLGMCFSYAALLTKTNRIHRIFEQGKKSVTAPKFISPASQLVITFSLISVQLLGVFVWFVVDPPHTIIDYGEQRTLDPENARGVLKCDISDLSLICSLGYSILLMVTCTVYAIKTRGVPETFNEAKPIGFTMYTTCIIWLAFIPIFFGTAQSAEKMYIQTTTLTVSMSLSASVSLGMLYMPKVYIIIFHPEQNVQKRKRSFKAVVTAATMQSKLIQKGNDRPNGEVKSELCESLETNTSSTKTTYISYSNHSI", "experiment": "rat mGluR8 modulators via GIRK flux, primary screen, cell-based, thallium flux, HTS (AID 488969)", "settings": "HEK293 rat mGluR8, GIRK (G protein-gated inwardly rectifying potassium channel) thallium flux, FluoZin2; at 10 µM; stronger effect = higher value; submaximal glutamate (EC20) added with thallium"}
{"smiles": "Cc1sc(N/N=C/c2cccnc2)nc1-c1ccc(Cl)cc1", "z-score": -0.0424}
{"smiles": "COCCNC(=O)CSc1nc2ccccc2c(=O)n1CCCC(=O)NCc1ccccc1", "z-score": -0.969}
{"smiles": "CC(C)Cc1nnc(NC(=O)CCC(=O)NC2CCCc3ccccc32)s1", "note": "(stereo not given)", "z-score": 0.13}
{"smiles": "CCOC(=O)COc1ccc(S(=O)(=O)NCc2ccco2)cc1", "z-score": 0.341}
{"smiles": "O=C(Nc1ccc(N2CCCC2)cc1)c1ccccc1F", "z-score": -0.21}
{"smiles": "COc1ccc([N+](=O)[O-])cc1COc1cc(C)cc2oc(=O)cc(-c3ccccc3)c12", "z-score": 0.564}
{"smiles": "CCOC(=O)C1=C(C)N(C)C(=S)NC1c1ccccc1", "note": "(stereo not given)", "z-score": -0.134}
{"smiles": "COc1ccc(C(=S)N2CCN(C)CC2)cc1Br", "z-score": -0.395}
{"smiles": "Cc1ccccc1N1C(=O)C(Oc2ccc(Cl)cc2)C1CNC(C)(C)C", "note": "(stereo not given)", "z-score": 0.46}
{"smiles": "Cc1cc(C)cc(-n2c(C)cc(/C=N/NC(=O)CSc3ncccn3)c2C)c1", "z-score": -0.626}
{"smiles": "O=C(Nc1nnc(C2CC2)s1)c1cc(S(=O)(=O)N2CCN(c3ccccc3)CC2)ccc1Cl", "z-score": -0.252}
{"smiles": "CC(C)[C@H](NS(=O)(=O)c1ccc2c(c1)OCCO2)C(=O)OCC(=O)Nc1ccccc1", "z-score": -0.0541}
{"smiles": "Oc1c(Cl)cc(Cl)cc1C=Nc1ccccc1N1CCCC1", "z-score": 0.0524}
{"smiles": "CCn1c(SCC(=O)Nc2nc3ccccc3s2)nc2c(c1=O)SC(C)C2", "note": "(stereo not given)", "z-score": -1.37}
{"smiles": "COc1ccc(C2C(C(=O)NCCN3CCOCC3)c3ccccc3C(=O)N2C)cc1OC", "note": "(stereo not given)", "z-score": 0.256}
{"smiles": "Cc1cccc(NC(=O)c2cc3c([nH]c4ccccc43)c(C)n2)c1C", "z-score": 0.0463}
{"smiles": "CCOc1ccc2nc(NC(=O)c3ccc(OCC4CCCO4)cc3)sc2c1", "note": "(stereo not given)", "z-score": 0.152}
{"smiles": "CCCCCC(/C=N/Nc1ccc(S(=O)(=O)N2CCOCC2)cc1[N+](=O)[O-])=C\\c1ccccc1", "z-score": -0.0356}
{"smiles": "O=C(OC1CCCCC1)c1ccc(NC(=O)c2ccco2)cc1", "z-score": -1.15}
{"smiles": "CCOc1ccc2nc(NC(=O)CSc3nnnn3C3CCCCC3)sc2c1", "z-score": -0.0775}
{"smiles": "COc1ccc(-c2cc(C(=O)NCC(C)C)no2)cc1", "z-score": -0.536}
{"smiles": "Cc1ccc(NC2=NCCCCC2)cc1C", "z-score": -0.0568}
{"smiles": "Cc1ccccc1-c1cc(C(=O)Nc2nc3c(s2)CCCC3)c2ccccc2n1", "z-score": -0.133}
{"smiles": "Cc1cc(C)cc(NC(=O)C(OC(=O)c2sccc2C)c2ccccc2)c1", "note": "(stereo not given)", "z-score": -0.142}
{"smiles": "CCN(CC)S(=O)(=O)c1ccc(C)c(NC(=S)NNC(=O)C2CC2)c1", "z-score": 0.0753}
{"smiles": "N/C(COc1ccc(Cl)cc1Cl)=N\\NS(=O)(=O)c1ccccc1", "z-score": -0.356}
{"smiles": "COc1ccc(N2CCN(C(=N)/C(C(C)=O)=C(\\C)O)CC2)cc1", "z-score": 0.87}
{"smiles": "Cc1ccccc1NC(=O)c1cccc(C(F)(F)F)c1", "z-score": -0.246}
{"smiles": "c1ccc(N2CCN(c3ccccc3)C2c2ccncc2)cc1", "z-score": -0.689}
{"smiles": "OCCNc1nc(NCCC2=CCCCC2)nc(N2CCOCC2)n1", "z-score": -0.929}
{"smiles": "Cc1ccc(CNC(=O)COC(=O)CSc2ccc(Br)cc2C)cc1", "z-score": -0.303}
{"smiles": "COC(=O)C1=C(C)n2nnnc2NC1c1ccc(Cl)cc1", "note": "(stereo not given)", "z-score": -1.56}
{"smiles": "O=C1CCCC2=C1C(c1ccc(Cl)cc1)C1C(=O)c3ccccc3C1=N2", "note": "(stereo not given)", "z-score": -0.0579}
{"smiles": "Cc1cc(NC(=O)CSc2nnnn2C2CCCC2)no1", "z-score": 0.00246}
{"smiles": "Cc1cc(C)n(-c2nc3ccccc3nc2N2CCN(S(=O)(=O)c3ccc4ccccc4c3)CC2)n1", "z-score": -0.189}
{"smiles": "COc1ccc(C)cc1S(=O)(=O)N1CCN(Cc2ccccc2)CC1", "z-score": -0.238}
{"smiles": "CC(OC(=O)c1ccc2ncsc2c1)C(=O)NCc1ccccc1", "note": "(stereo not given)", "z-score": 0.0216}
{"smiles": "CC(=O)c1c(C)[nH]c(C(=O)OCC(=O)N2CCN(S(=O)(=O)c3ccc(C)cc3C)CC2)c1C", "z-score": -0.0929}
{"smiles": "CC1Cn2c(nnc2-c2cc3ccccc3cc2O)S1", "note": "(stereo not given)", "z-score": -0.312}
{"smiles": "FC(F)(F)c1cc(-c2ccco2)nc(N2CCN(c3ccccc3)CC2)n1", "z-score": -0.256}
{"smiles": "Cc1cc(C)nc(Sc2ccc3nnc(C(F)(F)C(F)(F)C(F)(F)F)n3n2)n1", "z-score": -0.0632}
{"smiles": "COc1ccc(Cc2nnc(SCc3c(C)noc3C)n2C2CCCCC2)cc1OC", "z-score": 0.045}
{"smiles": "CNC(=S)NC1CC2CCC(C1)N2Cc1ccccc1", "note": "(stereo not given)", "z-score": -0.141}
{"smiles": "C1COCCNCCOCCOCCN1", "z-score": -0.21}
{"smiles": "CN(C)c1ccc(N2C(=O)CC(Nc3ccc(N4CCOCC4)cc3)C2=O)cc1", "note": "(stereo not given)", "z-score": -0.145}
{"smiles": "O=C(O)/C=C/C(=O)NNC(=O)c1ccc(Br)cc1", "z-score": 0.0968}
{"smiles": "COc1ccc(S(=O)(=O)N2CCC(C(=O)N3CCN(c4ccccc4OC)CC3)CC2)cc1", "z-score": -0.274}
{"smiles": "N#Cc1c(NCCN)nc(NCc2ccccc2)c2c1CCN(Cc1ccccc1)C2", "z-score": -0.11}
{"smiles": "COc1ccc(CNC(=O)/C(C#N)=C2\\N=C(NC(=O)c3cccs3)c3ccccc32)cc1", "z-score": 0.474}
{"smiles": "CC(C)(C)c1ccc(OC(=O)c2ccc3nsnc3c2)cc1", "z-score": -0.00352}
{"smiles": "COc1cc(NC(=O)c2ccco2)c(C(=O)O)cc1OC", "z-score": -0.12}
{"smiles": "COc1ccc(NC(=O)Cn2c(=O)sc3ccccc32)c(OC)c1", "z-score": -0.611}
{"smiles": "CCc1ccc(NC(=O)c2onc(C)c2Cl)cc1", "z-score": 0.00239}
{"smiles": "CCN1CCN(C(c2ccccc2)c2nnnn2Cc2ccccc2)CC1", "note": "(stereo not given)", "z-score": 0.171}
{"smiles": "CCCCCC(=O)Nc1nnn(CCC)n1", "z-score": 0.0157}
{"smiles": "O=C1C2CC=C(Cl)CC2C(=O)N1CCC[n+]1ccccc1", "note": "(stereo not given)", "z-score": -0.162}
{"smiles": "Cc1cc(=O)[nH]c(SCCCOc2ccccc2Cl)n1", "z-score": -1.08}
{"smiles": "COc1ccc(C(=O)n2cnnc2N)cc1", "z-score": 0.194}
{"smiles": "CCc1cc2c(=O)n(-c3ccc(C)cc3)cnc2s1", "z-score": -0.106}
{"smiles": "COc1cc(OC)cc(-c2cc3nc(C)cc(N4CCN(C(=O)c5ccco5)CC4)n3n2)c1", "z-score": -0.0474}
{"smiles": "CC1=C(C(=O)OCc2ccc3c(c2)OCO3)C(c2ccccc2OCc2ccccc2)NC(=O)N1", "note": "(stereo not given)", "z-score": -0.467}
{"smiles": "CC1(c2ccccc2Cl)NC(=O)N(CC(=O)NC(=O)NCc2ccco2)C1=O", "note": "(stereo not given)", "z-score": 1.01}
{"smiles": "CCOC(=O)C1=C(C)N=C2SC(CC)C(=O)N2C1c1cccc(F)c1", "note": "(stereo not given)", "z-score": -2.34}
{"smiles": "COC(=O)[C@H](CCSC)NC(=O)N1CCC(C)CC1", "z-score": 0.07}
{"smiles": "O=[N+]([O-])c1ccc(OCC(O)CN(CCO)CCO)cc1", "note": "(stereo not given)", "z-score": 0.209}
{"smiles": "COc1ccc(/C=N/NC(=O)COc2ccc(Cl)cc2Cl)cc1Cn1nc(C)cc1C", "z-score": -0.534}
{"smiles": "Cc1cc(C)c(C)c(S(=O)(=O)NCc2ccc(C(=O)N3CCCCC3)cc2)c1C", "z-score": 0.249}
{"smiles": "CCOC(=O)C1CCN(c2cc(=O)n(-c3ccc(OC)cc3)c(=O)[nH]2)CC1", "z-score": 0.162}
{"smiles": "COc1cc(OC)cc(C(=O)N2CCN(C3CCN(Cc4ccccc4)CC3)CC2)c1", "z-score": -0.0186}
{"smiles": "O=C(O)CNC(=O)c1ccc2c(c1)OCCO2", "z-score": 0.311}
